Assay [1] deals with RAW-Dual. Kind of assay: NF-kB SEAP reporter activity, fold change vs agonist alone; higher = enhanced NF-kB activity. Conditions: library stock concentration (final ~1000-fold dilution): 10 mM. The gist of the method:
(§1)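 RAW-Dual macrophages were seeded in DMEM at 50,000 cells/well in 384-well plates, given 50 nL of library stock by pin tool, and given a PRR agonist 1 h later. Plates were held at 37 °C, 5% CO2 for 20 hours, after which supernatant was read for IRF by QuantiLuc luminescence and for NF-κB by QuantiBlue absorbance at 620 nm. Reporter activity is expressed as fold change over wells that received agonist alone. A well was called cytotoxic when IncuCyte confluency fell below 70% of agonist controls in both mask sets.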

The subject of assay [2] is RAW-Dual. Kind of assay: NF-kB SEAP reporter activity, fold change vs agonist alone; cytotoxicity flag (confluency mask): not cytotoxic; higher = enhanced NF-kB activity. An outline of the steps:
as §1

Assay [3] has as its system RAW-Dual. Kind of assay: NF-kB SEAP reporter activity, fold change vs agonist alone; cytotoxicity flag (confluency mask): cytotoxic (confluency <70% of control); higher = enhanced NF-kB activity. An outline of the steps: as §1
[4] abbreviates: cytotoxicity flag (confluency mask): not cytotoxic, agonist: Imiquimod (TLR7) […].
The mark [5] stands for this setting: cytotoxicity flag (confluency mask): not cytotoxic, agonist: MPLA (TLR4) […].
The mark [6] stands for this setting: agonist: ODN 1826 (TLR9) 0.5 ug/mL.
Where [7] appears, read: agonist: Pam2CSK4 (TLR2/6) 0.1 ug/mL.
Setting [8] is: agonist: Pam3CSK4 (TLR2/1) 0.1 ug/mL.
The mark [9] stands for this setting: cytotoxicity flag (confluency mask): cytotoxic (confluency <70% of control), agonist: Imiquimod (TLR7) […].
[10] abbreviates: cytotoxicity flag (confluency mask): cytotoxic (confluency <70% of control), agonist: MPLA (TLR4) […].

This note sets out measurements from the supplement of paper PMC10037445.

Structures are written as SMILES. ± gives the standard deviation of the averaged measurements. The full ranking holds about 2,900 compounds; the median of “NF-kB SEAP reporter activity, fold change vs agonist alone” is about 0.99, and the highest 2% start at about 2.6. The list shows a part of the results.

On to `O=[N+]([O-])c1ccc(Nc2ccccc2-c2ccccc2)c2nonc12`, for which the “NF-kB SEAP reporter activity” value in the assay with RAW-Dual [1] (setting [4]) came to 0.973; in the assay on RAW-Dual [1] (setting [5]) it was 1.33.

On to `C[N+](C)(C)CC(O)CC(=O)O` (stereo not drawn) (library stock concentration (final ~1000-fold dilution): 10 mM), for which the “NF-kB SEAP reporter activity” value in the assay with RAW-Dual [2] (agonist: LPS (TLR4) 0.1 ug/mL) was 1.22; with RAW-Dual [2] (setting [6]) it was 1.04; with RAW-Dual [2] (setting [7]), 1.09; in the assay on RAW-Dual [2] (setting [8]) it was 1.04.

Regarding `C[N+](C)(C)CC(O)CC(=O)O` (stereo not drawn), the “NF-kB SEAP reporter activity” value worked out at 0.865 with RAW-Dual [1] (setting [4]) and 0.993 in the assay with RAW-Dual [1] (setting [5]).

For `COc1nc2ccc(Br)cc2cc1C(c1ccccc1)C(O)(CCN(C)C)c1cccc2ccccc12.O=C(O)/C=C/C(=O)O` (stereo not drawn), in the assay with RAW-Dual [1] (setting [5]), the “NF-kB SEAP reporter activity” value came out at 0.907.

Turning to `COc1nc2ccc(Br)cc2cc1C(c1ccccc1)C(O)(CCN(C)C)c1cccc2ccccc12.O=C(O)/C=C/C(=O)O` (stereo not drawn) (library stock concentration (final ~1000-fold dilution): 10 mM), the “NF-kB SEAP reporter activity” value was 0.558 in the assay on RAW-Dual [2] (agonist: LPS (TLR4) 0.1 ug/mL), 0.739 with RAW-Dual [2] (setting [6]), 0.383 with RAW-Dual [2] (setting [7]) and 0.32 in the assay with RAW-Dual [2] (setting [8]).

With `Cl.NCCOCCOCCNC(=O)Cc1ccc(Nc2nc(NCc3ccc(F)cc3)nc(NCC3CCCCC3)n2)cc1` (library stock concentration (final ~1000-fold dilution): 10 mM), the “NF-kB SEAP reporter activity” value came to 0.643 in the assay on RAW-Dual [3] (agonist: LPS (TLR4) 0.1 ug/mL), 0.852 with RAW-Dual [3] (setting [6]), 0.738 in the assay on RAW-Dual [3] (setting [7]) and 0.911 in the assay with RAW-Dual [3] (setting [8]).

On to `Cl.NCCOCCOCCNC(=O)Cc1ccc(Nc2nc(NCc3ccc(F)cc3)nc(NCC3CCCCC3)n2)cc1`, for which the “NF-kB SEAP reporter activity” value in the assay with RAW-Dual [1] (setting [9]) amounted to 1.05; in the assay with RAW-Dual [1] (setting [10]), 1.59.

As for `OCCn1cc(-c2cnc3nnn(Cc4ccc5ncccc5c4)c3n2)cn1`, the “NF-kB SEAP reporter activity” value with RAW-Dual [1] (setting [4]) is 0.952; in the assay on RAW-Dual [1] (setting [5]), 0.983.

As to `OCCn1cc(-c2cnc3nnn(Cc4ccc5ncccc5c4)c3n2)cn1` (library stock concentration (final ~1000-fold dilution): 10 mM), the “NF-kB SEAP reporter activity” value with RAW-Dual [2] (agonist: LPS (TLR4) 0.1 ug/mL) was found to be 1.01; in the assay with RAW-Dual [2] (setting [6]), 1.07; in the assay on RAW-Dual [2] (setting [7]), 1.09; in the assay with RAW-Dual [2] (setting [8]), 1.06.

In the case of `COC(=O)NC(C(=O)N1CCCC1c1ncc(-c2ccc(-c3ccc(-c4cnc(C5CCCN5C(=O)C(NC(=O)OC)C(C)C)[nH]4)cc3)cc2)[nH]1)C(C)C` (stereo not drawn), the entries for the “NF-kB SEAP reporter activity” value in the assay with RAW-Dual [1] (setting [4]) and with RAW-Dual [1] (setting [5]) were 1.24 and 1.31, respectively.

Take `COC(=O)NC(C(=O)N1CCCC1c1ncc(-c2ccc(-c3ccc(-c4cnc(C5CCCN5C(=O)C(NC(=O)OC)C(C)C)[nH]4)cc3)cc2)[nH]1)C(C)C` (stereo not drawn) (library stock concentration (final ~1000-fold dilution): 10 mM): the “NF-kB SEAP reporter activity” value in the assay with RAW-Dual [2] (agonist: LPS (TLR4) 0.1 ug/mL) stood at 1.88; with RAW-Dual [2] (setting [6]) it was 0.935; with RAW-Dual [2] (setting [7]), 0.867; in the assay on RAW-Dual [2] (setting [8]), 0.8.

For `Cc1nc2ccc(CN(C)c3ccc(C(=O)NC(CCC(=O)O)C(=O)O)s3)cc2c(=O)[nH]1` (stereo not drawn) (library stock concentration (final ~1000-fold dilution): 10 mM), the “NF-kB SEAP reporter activity” value was 1.56 in the assay on RAW-Dual [2] (agonist: LPS (TLR4) 0.1 ug/mL), 1.93 in the assay on RAW-Dual [2] (setting [6]), 1.31 with RAW-Dual [2] (setting [7]) and 1.7 in the assay with RAW-Dual [2] (setting [8]).

Regarding `Cc1nc2ccc(CN(C)c3ccc(C(=O)NC(CCC(=O)O)C(=O)O)s3)cc2c(=O)[nH]1` (stereo not drawn), the “NF-kB SEAP reporter activity” value with RAW-Dual [1] (setting [4]) came out at 1.78; in the assay on RAW-Dual [1] (setting [5]), 1.45.

In the case of `CCCCc1oc2ccccc2c1C(=O)c1cc(I)c(OCCN(CC)CC)c(I)c1.Cl` (library stock concentration (final ~1000-fold dilution): 10 mM), the “NF-kB SEAP reporter activity” value in the assay on RAW-Dual [2] (agonist: LPS (TLR4) 0.1 ug/mL) came to 1.8; in the assay on RAW-Dual [2] (setting [6]), 0.581; in the assay with RAW-Dual [2] (setting [7]) it was 0.912; with RAW-Dual [2] (setting [8]), 0.805.

Regarding `CCCCc1oc2ccccc2c1C(=O)c1cc(I)c(OCCN(CC)CC)c(I)c1.Cl`, the figures for the “NF-kB SEAP reporter activity” value in the assay with RAW-Dual [1] (setting [4]) and in the assay on RAW-Dual [1] (setting [5]) were 1.75 and 1.96, respectively.

For `COC(=O)C12CCC(C)(C)CC1C1C(=O)C=C3C4(C)C=C(C#N)C(=O)C(C)(C)C4CCC3(C)C1(C)CC2` (stereo not drawn) (library stock concentration (final ~1000-fold dilution): 10 mM), the “NF-kB SEAP reporter activity” value came out at 0.353 ± 0.078 with RAW-Dual [3] (agonist: LPS (TLR4) 0.1 ug/mL), 0.184 ± 0.025 with RAW-Dual [3] (setting [6]), 0.0738 ± 0.0054 with RAW-Dual [3] (setting [7]) and 0.139 ± 0.0028 in the assay on RAW-Dual [3] (setting [8]).

For `COC(=O)C12CCC(C)(C)CC1C1C(=O)C=C3C4(C)C=C(C#N)C(=O)C(C)(C)C4CCC3(C)C1(C)CC2` (stereo not drawn), the “NF-kB SEAP reporter activity” value was found to be 0.143 ± 0.0056 in the assay with RAW-Dual [1] (setting [9]) and 0.255 ± 0.0027 in the assay on RAW-Dual [1] (setting [10]).

With `O=C(O)c1ccc2nc(-c3cc(Cl)cc(Cl)c3)oc2c1`, the “NF-kB SEAP reporter activity” value with RAW-Dual [1] (setting [4]) stood at 0.977; with RAW-Dual [1] (setting [5]), 1.18.

Consider `O=C(O)c1ccc2nc(-c3cc(Cl)cc(Cl)c3)oc2c1` (library stock concentration (final ~1000-fold dilution): 10 mM), for which the “NF-kB SEAP reporter activity” value came out at 1.26 in the assay on RAW-Dual [2] (agonist: LPS (TLR4) 0.1 ug/mL), 1.05 in the assay on RAW-Dual [2] (setting [6]), 0.972 in the assay on RAW-Dual [2] (setting [7]) and 1.13 with RAW-Dual [2] (setting [8]).

Regarding `CN(C)CCCC1(c2ccc(F)cc2)OCc2cc(C#N)ccc21.O=C(O)C(=O)O` (stereo not drawn) (library stock concentration (final ~1000-fold dilution): 10 mM), the “NF-kB SEAP reporter activity” value was 0.861 with RAW-Dual [2] (agonist: LPS (TLR4) 0.1 ug/mL), 0.971 in the assay on RAW-Dual [2] (setting [6]), 0.838 in the assay on RAW-Dual [2] (setting [7]) and 0.973 in the assay with RAW-Dual [2] (setting [8]).

As for `CN(C)CCCC1(c2ccc(F)cc2)OCc2cc(C#N)ccc21.O=C(O)C(=O)O` (stereo not drawn), the figures for the “NF-kB SEAP reporter activity” value with RAW-Dual [1] (setting [4]) and in the assay on RAW-Dual [1] (setting [5]) were 1.19 and 0.996, respectively.

For `CNC(=O)c1cc(Oc2ccc(NC(=O)Nc3ccc(Cl)c(C(F)(F)F)c3)cc2)ccn1.Cc1ccc(S(=O)(=O)O)cc1` (library stock concentration (final ~1000-fold dilution): 10 mM), the “NF-kB SEAP reporter activity” value in the assay on RAW-Dual [3] (agonist: LPS (TLR4) 0.1 ug/mL) was 0.415; in the assay with RAW-Dual [3] (setting [6]) it was 0.808; in the assay with RAW-Dual [3] (setting [7]) it was 0.164; in the assay with RAW-Dual [3] (setting [8]), 0.324.

As to `CNC(=O)c1cc(Oc2ccc(NC(=O)Nc3ccc(Cl)c(C(F)(F)F)c3)cc2)ccn1.Cc1ccc(S(=O)(=O)O)cc1`, the “NF-kB SEAP reporter activity” value in the assay with RAW-Dual [1] (setting [9]) was 1.3; with RAW-Dual [1] (setting [10]), 1.16.

In the case of `O=C(O)CC(CC(=O)O)C(=O)O`, the figures for the “NF-kB SEAP reporter activity” value in the assay with RAW-Dual [1] (setting [4]) and with RAW-Dual [1] (setting [5]) were 0.972 and 1.04, respectively.

With `O=C(O)CC(CC(=O)O)C(=O)O` (library stock concentration (final ~1000-fold dilution): 10 mM), the “NF-kB SEAP reporter activity” value with RAW-Dual [2] (agonist: LPS (TLR4) 0.1 ug/mL) stood at 1.45; in the assay with RAW-Dual [2] (setting [6]), 0.973; in the assay with RAW-Dual [2] (setting [7]), 0.946; in the assay on RAW-Dual [2] (setting [8]), 1.49.
